Source: the supplement of paper PMC10126150
Values marked as one replicate rest on one cluster of the flow cell; about a third of the high ones do not repeat.

Test system: ATP
Assay: switch fluorescence ratio, 500 uM ATP over buffer (Cy3 cluster intensity, sum of 5 cycles each) (fold (ratio)); higher = stronger signal-on switching upon ATP binding; sequences stand for … in TCGTCGGCAGCGTCAGATGTGTATAAGAGACAGTTTTTTTTTTTTTTTTTTTTTTTTT…TC
Details: aptamer strand: ATP DNA aptamer (quencher-CACCTGGGGGAGTATTGCGGAGGAAGG + anchor), 100 nM annealed; ATP concentration: 500 uM; one replicate
Outline: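 Values give the fluorescence ratio for each switch-domain sequence, averaged from per-cluster ratios of summed target-cycle to summed buffer-cycle Cy3 intensity. The Cy3-labelled switching-strand clusters sat on a modified Illumina MiSeq flow-cell, were annealed to 100 nM quencher-labelled ATP aptamer, and were imaged in selection buffer, then after 15 min with 500 uM ATP at 22 °C. Five cycles ran with NaOH stripping and re-annealing between them, and clusters outside 100-1000 RFU were excluded.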
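Further: ATP exposure 15 min at 22 °C before imaging.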

Row | Sequence | switch fluorescence ratio
1 | TAAGGTCCGT | 1.02
2 | TGTGAGCCAC | 1.01
3 | CGTTGTGCGC | 1
4 | GAATGGGCCG | 1.01
5 | TCATATGATT | 1.01
6 | TCAGGATCGT | 0.984
7 | ACCGGCTCTA | 1.04
8 | CATTGCAGGT | 1.03
9 | TTTGACCAAA | 0.994
10 | CGTGGGAGCA | 0.964
11 | TGGTAAAGAG | 0.995
12 | TAAATCGTCA | 0.994
13 | TAGGACTAGT | 0.997
14 | CGACTGTACA | 1.51
15 | GTGTGTCCGT | 1.01
16 | TATGTGTCTA | 0.991
17 | TTAATTTGCG | 1.05
18 | CAGCCTGTCA | 1
19 | ACCTTGAATC | 1.09
20 | TTGTGGATC | 0.98
21 | TTCTCTTAAT | 1.04
22 | CTGTAGTGAT | 1
23 | GCTACCTGTT | 1.05
24 | TCGATTT | 0.979
25 | CGTGGGAAAC | 1
26 | CGAGTGTCTC | 1.04

Row | Sequence | switch fluorescence ratio
27 | TGCGATGGC | 1.38
28 | TTCCGAGTAT | 1.06
29 | TCGGATAGGC | 0.991
30 | GTGAGTTAG | 0.989
31 | CAGTCATGAC | 1.03
32 | CTGCGTATGA | 1.08
33 | GGCCGAAAAT | 1.07
34 | CATCAGGGCC | 1.01
35 | GGCGATGAAT | 1.01
36 | GCCTTAAATC | 1.01
37 | CCATGTGGCG | 0.987
38 | ATCACTGTTG | 1.04
39 | GCTATTCGTG | 0.984
40 | TGGGCCTCAA | 1.03
41 | TTTTGCCCTG | 1.05
42 | TAAGGTCAGG | 1.01
43 | GCCGGCGACG | 0.991
44 | ACACCGACCG | 1.33
45 | GAATATGAGG | 0.988
46 | TTTTGGCTCG | 0.987
47 | ATATCTCATA | 0.971
48 | ATGTCATAGG | 0.992
49 | ACTAAAATCA | 1.12
50 | TTGTGAACC | 1.01
51 | GGCATTATTC | 1.04
52 | TAGTACGGTA | 1.01

Row | Sequence | switch fluorescence ratio
53 | TCGTTCTGT | 0.968
54 | GTATAACACC | 1.01
55 | AGGAGACTC | 1.06
56 | GCACGGTGTC | 1.07
57 | ACATAGAAGG | 1.03
58 | CTTTTGACGC | 2.12
59 | TTTCTTCGAA | 1.02
60 | TCGCCTCATG | 1
61 | GAGACTGCTC | 0.973
62 | CAGCCTTATC | 1.07
63 | CCGTCTGTG | 1.03
64 | GGCTATACGT | 1.15
65 | CTGCGCATGT | 1.87
66 | GCTCTCTAAT | 1.05
67 | GTGGTGCATA | 1.01
68 | AGCCCGCCTG | 0.98
69 | CGTAGTCAAG | 1.15
70 | CACAAAGCTT | 1
71 | AAGTTTGTG | 1
72 | AAACGTCGGA | 1.02
73 | CGGAGCTGGT | 1.36
74 | CCCCAGCACG | 1.8
75 | CAGCTGATCT | 1.02
76 | TGGGAATTTG | 1.01
77 | ATCATGCTGG | 0.981
78 | CAGATTGGCC | 1.02

Row | Sequence | switch fluorescence ratio
79 | AGAACACTCA | 1.15
80 | ATCCCTTACC | 1.21
81 | TCTTCAGATG | 1.01
82 | TTAGTTCTCT | 1.04
83 | CTTGAAGATT | 0.949
84 | TCTCGTGCCT | 0.967
85 | TTATATGGAC | 1.03
86 | GATAAGTCAC | 1.13
87 | CTGAATCCCG | 1
88 | GGTTAAGATT | 0.958
89 | AGCCCCTCAA | 1.05
90 | TACGTCTATA | 0.988
91 | TGGGTTATAA | 0.989
92 | GTAGGCAGCC | 0.967
93 | TTCCTGAGGA | 1.03
94 | CCTGGCATCT | 1.19
95 | AAGTAGGGTC | 1.04
96 | CCCCTTGAAA | 1.01
97 | AATGCATAAG | 0.988
98 | ATTTTCGCGC | 1.14
99 | CCAGTTAATA | 1.03
100 | ACTCAAGTCA | 1.03
101 | TTCCGGCGCG | 1.35
102 | CGAAAGGGAG | 1.03
103 | CTGATACACT | 1.03
104 | CGAAGTCGCG | 0.99

Row | Sequence | switch fluorescence ratio
105 | CCCTCATTTA | 0.978
106 | CATCATTGTA | 0.98
107 | ATAGGATAGC | 0.953
108 | GGAACTTGTA | 0.991
109 | GCAAATTTGT | 0.983
110 | ACTGTCACGG | 1.3
111 | CCAACGTAAG | 1.15
112 | TGATGTTAAC | 0.995
113 | CGGAAACGAA | 1.04
114 | TTCTTATAGT | 0.941
115 | AATTCGTTCG | 1.03
116 | CGGGGTGGAG | 1.08
117 | TGGGGAGACG | 0.966
118 | AGGTTATTTC | 0.989
119 | CTTACGTGAC | 1.09
120 | AGTGACTAA | 1
121 | TTAATATCTC | 1.16
122 | CATATGTGTC | 0.92
123 | TCACCTAAAT | 1.02
124 | TGCGTTGAGG | 1.02
125 | CCGATAACG | 1.11
126 | ATCGGGAGTG | 0.954
127 | TGCGGTCTCG | 0.97
128 | TGCAGTGGGT | 1.01
129 | ACCGGTCACA | 1.1
130 | TTATATTGGC | 1.01

Row | Sequence | switch fluorescence ratio
131 | CTCGCCAGAA | 0.993
132 | GCGGGGGAGA | 1.04
133 | GATAGATGGT | 0.987
134 | TCCATATCGT | 1.02
135 | AATTAGTAGG | 0.981
136 | TCGATTTATG | 0.97
137 | TCCCCCGTGT | 1.26
138 | TGTTGGGTCG | 0.942
139 | TTGGGAGTCA | 0.99
140 | CGACAGTTAT | 1.06
141 | GACGCGTAAC | 5.95
142 | TGGTTATAGT | 0.986
143 | AGCGGGGGA | 0.995
144 | CTCCTGATCG | 1.04
145 | ATTGTTAT | 1
146 | CCGAGGACGT | 1.13
147 | GGAGTAATCC | 1.19
148 | GAACCACGGC | 1.03
149 | CCTGTGTGAT | 1.44
150 | AGATTCGTGA | 0.971
151 | ATTAGGGG | 0.965
152 | TGTTGTGACG | 0.942
153 | AATGAAAGAA | 1.01
154 | CGATGCCCAC | 1.44
155 | GGTGGCTCCC | 0.985
156 | AATCTCGATA | 0.972

Row | Sequence | switch fluorescence ratio
157 | CAATCGTCAC | 1.08
158 | CGATGATTGG | 1.01
159 | GATCTAAGGA | 0.967
160 | AGGTTAAAAA | 1.05
161 | ACCGTTGTCG | 1.07
162 | GATACCCGTC | 1.09
163 | ATGGTTTCCT | 0.986
164 | GTGGGGAGAC | 1.03
165 | TAAGTGCCTA | 0.983
166 | TGTTTCAGGA | 0.999
167 | GCTGGACGTC | 1.04
168 | TTAAGAGGT | 1.02
169 | TGTTATCGT | 1.03
170 | GATGAGAACT | 1.02
171 | AGAACTTAGT | 0.982
172 | GGGAAGATCA | 1.03
173 | ATGAGTGTCT | 0.969
174 | CGGGTTATGC | 0.937
175 | CCCAGGGGCG | 1.43
176 | GCAGGATGGC | 1.1
177 | CTTCACGTGG | 1.03
178 | TTGGTAAGCT | 1
179 | AGACTCTGCG | 1.01
180 | CTTGATTTAT | 1.03
181 | AACTTCAGGG | 1.01
182 | GGGAGAGCCC | 0.993

Row | Sequence | switch fluorescence ratio
183 | ACGAAAGACA | 1.12
184 | CGAGTCTCGG | 1.06
185 | TAGGGTAACG | 0.94
186 | GCTGACTGAG | 0.981
187 | GGAGCAGGGG | 1.08
188 | GTTCGACGCA | 1.5
189 | GGGGTATGT | 1.01
190 | TCGGAGGCGT | 1.04
191 | AATAGTTTTG | 0.99
192 | GGACGCCACG | 1.03
193 | CGACCCCATT | 1.22
194 | ACTAGACGT | 1.18
195 | TGATGTTGCA | 1
196 | AGGAAAGGCC | 0.984
197 | CGCGCCATTT | 1
198 | AATGTGTCGA | 1.06
199 | TGAGGTCCTT | 1.05
200 | CTATAATCAC | 1.05
201 | TGTTGCGTCG | 0.963
